Out of some 45,000 compounds screened, about 200 (0.44%) were called active. Inconclusive results (about 7%) are left out. Calls come from the whole dose curve; as a rule, active = well fitted activation curve with a large enough effect; inconclusive = small, poorly fitted or top-dose-only effect; inactive = no such curve, though single readings can be large or run the other way. Some of the results follow.

This experiment is described as follows: qHTS of TDP-43 Inhibitors: NCGC Sytravon Library Screen. Note: 0% is about no effect; nearly all actives have a fitted effect of over 55% in size. Conditions: yeast TDP-43 toxicity rescue, BacTiter-Glo growth, 24 h; series mostly up to 46.1 µM; growth rescue (activation): at the top concentration. The method in brief: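 TDP-43-expressing yeast, pregrown in raffinose, seeded at OD600 0.02 in galactose medium with compound for 24 hr at 30 deg C. Growth read by BacTiter-Glo luminescence, so rescue of toxicity appears as activation.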
A general note: In qHTS, concentration-response curves come from the screen itself.
Consider `Cc1ccc(C(=O)N(Cc2sccc2C)C2CCS(=O)(=O)C2)cc1` (stereo not given), for which the “growth rescue (activation)” value was inactive: 12.2%.

Consider `COc1cc(CN2CCC(C(=O)NC(c3ccc(F)cc3)c3ccc4ccccc4n3)CC2)cc(OC)c1` (stereo not given), for which the “growth rescue (activation)” value was inactive: 6.76%.

In the case of `COc1ccc(OC)c(NC(=O)C2(C)CCN2C(=O)C2(c3ccc(Cl)cc3)CCC2)c1` (stereo not given), the “growth rescue (activation)” value was inactive: 24.9%.

For `COc1cc(/C=C/C(=O)OCC(=O)NCCCc2ccccc2)cc(OC)c1OC`, the “growth rescue (activation)” value is inactive: 28.4%.

With `CC1CCc2sc(C(=O)N/N=C/C3CCCCC3)cc2C1` (stereo not given), the “growth rescue (activation)” value is inactive: 13.2%.

For `CC(=O)Nc1ccc(S(=O)(=O)NNC(=O)COc2ccc(Cl)cc2Cl)cc1`, the “growth rescue (activation)” value was inactive: -1.81%.

In the case of `Cn1c(N)c(C(=O)CSc2nnc(C3CC3)n2-c2ccccc2)c(=O)[nH]c1=O`, the “growth rescue (activation)” value was inactive: 14.9%.

For the molecule `COc1ccc(CNc2ncccn2)cc1OC`, the “growth rescue (activation)” value was inactive: 19.6%.

For the molecule `Cn1c(N/N=C/c2cc3ccccc3nc2Cl)nc2ccccc21`, the “growth rescue (activation)” value is inactive: 0.225%.

For the molecule `CCNC(=S)Nc1ccccc1-c1ccccc1`, the “growth rescue (activation)” value was inactive: 12.1%.

Turning to `CSC(=S)N/N=C/c1ccccc1`, the “growth rescue (activation)” value is inactive: -19.6%.

`COc1ccc2[nH]c(C(=O)N/N=C/c3ccc(OC)c(O)c3)cc2c1`: the “growth rescue (activation)” value was inactive: 5.82%.

On to `COc1ccccc1-c1cnc(C(O)c2cccc(CN3CCCCC3)c2)[nH]1` (stereo not given), for which the “growth rescue (activation)” value was inactive: 5.6%.

Regarding `CCOc1ccc(-n2c(SCC(=O)Nc3cc(C)on3)nc3c(c2=O)SCC3)cc1`, the “growth rescue (activation)” value was inactive: -11%.

Take `O=C(c1cccs1)c1no[n+]([O-])c1C(=O)c1cccs1`: the “growth rescue (activation)” value is inactive: -95.5%.

`CCOC(=O)c1ccc(NC(=S)N2CCN(Cc3ccccc3)CC2)cc1`: the “growth rescue (activation)” value was inactive: 7.98%.

In the case of `CCC1CCCCN1CC(O)Cn1c2ccccc2n2c(=O)cc(C)c(C#N)c12` (stereo not given), the “growth rescue (activation)” value is inactive: 13.4%.

Consider `Cc1ccc(NC(=O)c2cc(-c3ccccc3O)n[nH]2)cc1C`, for which the “growth rescue (activation)” value was inactive: 11.5%.

Consider `O=C(CSc1nc2ccccc2s1)N1CCN(C(=O)c2ccco2)CC1`, for which the “growth rescue (activation)” value was inactive: 0.147%.

With `CN1CCc2c(sc(/N=C/c3cc(C(C)(C)C)ccc3O)c2C#N)C1`, the “growth rescue (activation)” value was inactive: -1.62%.

As to `COc1cc([N+](=O)[O-])ccc1NC(=O)CCCOc1cc(C)ccc1C`, the “growth rescue (activation)” value was inactive: 3.75%.

For the molecule `COc1cc(NC(=O)CN2C(=O)C(c3ccc(C)cc3)=NC23CCCCC3)cc(OC)c1`, the “growth rescue (activation)” value is inactive: 24.2%.

Consider `COc1ccc(C2CC(=O)C(C=NCCN3CCN(C(=S)Nc4ccccc4)CC3)=C(O)C2)cc1` (stereo not given), for which the “growth rescue (activation)” value was inactive: 16.6%.

`O=C(CCSCCc1ccccn1)Nc1cc(F)ccc1F`: the “growth rescue (activation)” value is inactive: 9.72%.

As for `O=C1NN(c2ccc(F)cc2)C(=O)/C1=C\C=C\c1ccco1`, the “growth rescue (activation)” value is inactive: -6.23%.

`COC(=O)c1cccc(N(CC(=O)NC2CCCCC2)C(=O)CNC(=O)c2cccs2)c1`: the “growth rescue (activation)” value was inactive: 10.1%.

`O=[N+]([O-])c1ccc(CNC2CCCc3ccccc32)cc1` (stereo not given): the “growth rescue (activation)” value is inactive: 2.74%.

With `N#CCCN(C1CCCCC1)S(=O)(=O)CCOc1ccccc1`, the “growth rescue (activation)” value was inactive: -1.69%.

Turning to `CC(=O)Nc1ccc(S(=O)(=O)N2CCC(=O)Nc3ccccc32)cc1`, the “growth rescue (activation)” value is inactive: 3.96%.

As to `Cc1cc(N/N=C/c2ccncc2)nc2ccccc12`, the “growth rescue (activation)” value is inactive: 2.25%.

With `O=C(NNC(=S)Nc1ccc(OC(F)F)cc1)c1cc2c(s1)CCCC2`, the “growth rescue (activation)” value is inactive: 5.86%.

Regarding `N#CCc1ccc(Oc2ncc(C(F)(F)F)cc2Cl)cc1`, the “growth rescue (activation)” value was inactive: -17.8%.

With `CCCOc1nc(N)c(C#N)c(-c2ccccc2F)c1C#N`, the “growth rescue (activation)” value is inactive: 13%.

Take `O=C(NCC(=O)N1CCN(C(=O)c2ccco2)CC1)c1ccc(Br)cc1`: the “growth rescue (activation)” value is inactive: -2.68%.

With `CCNC(=O)C1(C)CCN(C(=O)c2ccc(OC)c(OC)c2)C1` (stereo not given), the “growth rescue (activation)” value is inactive: 2.76%.

Consider `COC(=O)c1ccc(-c2noc(CN(C)CC3CCCCO3)n2)cc1` (stereo not given), for which the “growth rescue (activation)” value is inactive: -8.57%.

As for `O=C(NC(=S)N1CCCCC1CO)c1cccs1` (stereo not given), the “growth rescue (activation)” value was inactive: -15.8%.

As for `Cc1ccsc1CN(C(=O)c1ccc(OCC(C)C)cc1)C1CCS(=O)(=O)C1` (stereo not given), the “growth rescue (activation)” value is inactive: 27.8%.

With `COc1ccc(S(=O)(=O)CCc2nnc(NC(=O)c3ccc(F)cc3)s2)cc1`, the “growth rescue (activation)” value is inactive: 14.2%.

`CCOc1cc(C)c(Cl)cc1S(=O)(=O)n1ccnc1`: the “growth rescue (activation)” value is inactive: -9.04%.

Consider `COc1ccc(CSc2n[nH]c(C)n2)cc1[N+](=O)[O-]`, for which the “growth rescue (activation)” value is inactive: 8.8%.

With `COc1ccc(C(C#N)N2N=C(C)CC2c2ccccc2)cc1` (stereo not given), the “growth rescue (activation)” value was inactive: -3.42%.

Take `COCCNC(=O)c1cccc(NC(=O)C2=C(C)OCCS2)c1`: the “growth rescue (activation)” value was inactive: -5.7%.

For `COc1ccc2[nH]c(C)c(C(=O)CN3CCc4cc(OC)c(OC)cc4C3)c2c1`, the “growth rescue (activation)” value was inactive: -4.37%.

On to `O=C(C1CCN(S(=O)(=O)c2ccccc2)CC1)N1CCCCCC1`, for which the “growth rescue (activation)” value was inactive: 6.9%.

For the molecule `CCNc1c(C(=O)O)ccc2c1C(=O)c1ccccc1C2=O`, the “growth rescue (activation)” value is inactive: -1.54%.

Turning to `COc1ccc(OC)c(CN2CCN(C(=O)CNC(=O)c3ccccc3F)CC2)c1`, the “growth rescue (activation)” value is inactive: -0.198%.

In the case of `O=C(NCc1ccc(F)cc1)C1Cc2ccccc2CN1C(=O)c1ccco1` (stereo not given), the “growth rescue (activation)” value was inactive: -3.75%.

As to `CCOC(=O)C(=O)N(Nc1ccc(C)cc1)c1ccc(C)cc1`, the “growth rescue (activation)” value is inactive: 17%.

Consider `CCOc1ccccc1N(CC(=O)NC1CCCCC1)S(=O)(=O)c1ccc(C)cc1`, for which the “growth rescue (activation)” value was inactive: 25.1%.

On to `NC(N)=N/N=C/c1ccc(OCc2ccccc2)c(OCc2ccccc2)c1`, for which the “growth rescue (activation)” value was inactive: -0.103%.

Regarding `C/C(=C/C(=O)N1CCc2ccccc21)C(=O)O`, the “growth rescue (activation)” value was inactive: 16.5%.

Consider `COc1ccc(S(=O)(=O)N2CCN(C3CCCC(C)C3)CC2)cc1` (stereo not given), for which the “growth rescue (activation)” value was inactive: 9.28%.

With `O=C1c2ccccc2C(=O)N1CCCCSc1nnc2ccccn12`, the “growth rescue (activation)” value is inactive: 21.5%.

For `COc1ccc(/C=N/N2CCOCC2)cc1O`, the “growth rescue (activation)” value was inactive: 14.4%.
